{"source": "the supplement of paper PMC10723795", "system": "RPE1", "test": "nucleolar normality score relative to DMSO (fraction of DMSO control); RPE1 is a non-cancer human cell line; higher = more normal nucleoli (less nucleolar stress)", "details": "24 h", "note": "Where a name gives a salt, the structure may show the parent alone. Some of the results follow.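 Rule for the calls: active = more than 2 SD below the DMSO mean: under 0.85 at 10 µM or 0.885 at 1 µM; inactive = the rest.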 Many values rest on one well or one pass, so single values are uncertain.", "data": [{"molecule": "Cc1cc2c(C(=O)NCC(C)c3ccccc3)c(O)c(O)cc2c(O)c1-c1c(C)cc2c(C(=O)NCC(C)c3ccccc3)c(O)c(O)cc2c1O", "note": "(centres undefined) [Sabutoclax];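 note: fixed cells immunolabelled for nucleolin and UBF, 40 image fields per well in 384-well plates, per-cell score = nucleolin nucleolar/nucleoplasm intensity ratio divided by the matching UBF ratio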", "values": [{"measurement": "nucleolar normality score", "setting": "1 µM", "result": "inactive: 1.03"}, {"measurement": "nucleolar normality score", "setting": "10 µM", "result": "inactive: 0.918"}]}, {"molecule": "COc1ccc(-c2cc3nccn3c(Nc3ncccc3C(N)=O)n2)cc1OC", "values": [{"measurement": "nucleolar normality score", "setting": "1 µM", "result": "inactive: 1.02"}, {"measurement": "nucleolar normality score", "setting": "10 µM", "result": "inactive: 0.861"}]}, {"molecule": "COC(=O)C=Cc1ccc(O)c(OC)c1", "note": "[Ferulic acid methyl ester]", "values": [{"measurement": "nucleolar normality score", "setting": "1 µM", "result": "inactive: 1.01"}, {"measurement": "nucleolar normality score", "setting": "10 µM", "result": "inactive: 1.03"}]}, {"molecule": "CC(C)(C)NC(=O)[C@H]1CC[C@H]2[C@@H]3CC[C@H]4NC(=O)C=C[C@]4(C)[C@H]3CC[C@]12C", "note": "[Finasteride]", "values": [{"measurement": "nucleolar normality score", "setting": "1 µM", "result": "inactive: 0.979"}, {"measurement": "nucleolar normality score", "setting": "10 µM", "result": "inactive: 1.06"}]}, {"molecule": "Cc1ccc(C(=O)Cn2c3c(sc2=N)CCCC3)cc1", "note": "[Pifithrin-α (PFTα) HBr]", "values": [{"measurement": "nucleolar normality score", "setting": "1 µM", "result": "inactive: 0.995"}, {"measurement": "nucleolar normality score", "setting": "10 µM", "result": "active: 0.692"}]}, {"molecule": "O=C1C2=C(CCN(Cc3ccccc3)C2)N2CCN=C2N1Cc1ccc(C(F)(F)F)cc1", "values": [{"measurement": "nucleolar normality score", "setting": "1 µM", "result": "inactive: 0.996"}, {"measurement": "nucleolar normality score", "setting": "10 µM", "result": "active: 0.78"}]}, {"molecule": "Cc1ccc(C(=O)N(CCCN)[C@@H](c2oc3cc(Cl)ccc3c(=O)c2Cc2ccccc2)C(C)C)cc1", "values": [{"measurement": "nucleolar normality score", "setting": "1 µM", "result": "active: 0.805"}, {"measurement": "nucleolar normality score", "setting": "10 µM", "result": "inactive: 0.927"}]}, {"molecule": "Cn1cnc(=N)c2[nH]cnc21", "note": "[3-Methyladenine (3-MA)]", "values": [{"measurement": "nucleolar normality score", "setting": "1 µM", "result": "inactive: 1.03"}, {"measurement": "nucleolar normality score", "setting": "10 µM", "result": "inactive: 0.921"}]}, {"molecule": "COc1cc2ccc(=O)oc2cc1OC", "note": "[Scoparone]", "values": [{"measurement": "nucleolar normality score", "setting": "1 µM", "result": "inactive: 0.952"}, {"measurement": "nucleolar normality score", "setting": "10 µM", "result": "active: 0.849"}]}, {"molecule": "O=C(Nc1cccnc1)N1CCC(Cc2cccc(Oc3ccc(C(F)(F)F)cn3)c2)CC1", "values": [{"measurement": "nucleolar normality score", "setting": "1 µM", "result": "inactive: 1"}, {"measurement": "nucleolar normality score", "setting": "10 µM", "result": "inactive: 1.07"}]}, {"molecule": "Cc1cc(C)nc(NS(=O)(=O)c2ccc(NC(=S)NC(=O)COc3ccc(Br)cc3Cl)cc2)n1", "values": [{"measurement": "nucleolar normality score", "setting": "1 µM", "result": "inactive: 0.943"}, {"measurement": "nucleolar normality score", "setting": "10 µM", "result": "inactive: 1.03"}]}, {"molecule": "Cc1cccc(-c2nn3c(c2-c2ccnc4ccc(C(N)=O)cc24)CCC3)n1", "values": [{"measurement": "nucleolar normality score", "setting": "1 µM", "result": "inactive: 1.01"}, {"measurement": "nucleolar normality score", "setting": "10 µM", "result": "inactive: 1.07"}]}, {"molecule": "N#Cc1c(Oc2ccc(F)c(NC(=O)Cc3cccc(C(F)(F)F)c3)c2)ccc2nc(NC(=O)C3CC3)sc12", "values": [{"measurement": "nucleolar normality score", "setting": "1 µM", "result": "inactive: 0.994"}, {"measurement": "nucleolar normality score", "setting": "10 µM", "result": "inactive: 0.985"}]}, {"molecule": "CO[C@H]1C[C@@H]2CC[C@@H](C)[C@@](O)(O2)C(=O)C(=O)N2CCCC[C@H]2C(=O)O[C@H]([C@H](C)C[C@@H]2CC[C@@H](OC(=O)C(C)(CO)CO)[C@H](OC)C2)CC(=O)[C@H](C)/C=C(\\C)[C@@H](O)[C@@H](OC)C(=O)[C@H](C)C[C@H](C)/C=C/C=C/C=C/1C", "values": [{"measurement": "nucleolar normality score", "setting": "1 µM", "result": "active: 0.748"}, {"measurement": "nucleolar normality score", "setting": "10 µM", "result": "active: 0.819"}]}, {"molecule": "Cc1noc(-c2ccc(CSCCC(=O)O)cc2)c1NC(=O)OC(C)c1ccccc1Cl", "note": "(centres undefined)", "values": [{"measurement": "nucleolar normality score", "setting": "1 µM", "result": "inactive: 0.967"}, {"measurement": "nucleolar normality score", "setting": "10 µM", "result": "inactive: 0.986"}]}, {"molecule": "Cc1ccc(C(=O)Nc2cccc(C(F)(F)F)c2)cc1Nc1nc(-c2cccnc2)nc2c1cnn2C", "values": [{"measurement": "nucleolar normality score", "setting": "1 µM", "result": "inactive: 1.07"}, {"measurement": "nucleolar normality score", "setting": "10 µM", "result": "inactive: 1.09"}]}, {"molecule": "COc1ccc(-c2cc(=O)c3c(OC)c(OC)c(OC)c(OC)c3o2)cc1OC", "note": "[Nobiletin]", "values": [{"measurement": "nucleolar normality score", "setting": "1 µM", "result": "inactive: 0.946"}, {"measurement": "nucleolar normality score", "setting": "10 µM", "result": "inactive: 0.866"}]}, {"molecule": "Cc1ccc(S(=O)(=O)OCC(=O)Nc2ccc(C(=O)O)c(O)c2)cc1", "values": [{"measurement": "nucleolar normality score", "setting": "1 µM", "result": "inactive: 0.983"}, {"measurement": "nucleolar normality score", "setting": "10 µM", "result": "inactive: 1.01"}]}, {"molecule": "C[C@H]1C[C@H]2[C@@H]3CCC4=CC(=O)C=C[C@]4(C)[C@H]3C(=O)C[C@]2(C)[C@@]1(O)C(=O)CO", "note": "[Meprednisone]", "values": [{"measurement": "nucleolar normality score", "setting": "1 µM", "result": "inactive: 0.994"}, {"measurement": "nucleolar normality score", "setting": "10 µM", "result": "inactive: 1.11"}]}, {"molecule": "CC1(C)C=C(CN2C/C(=C\\c3ccc(F)cc3)C(=O)/C(=C/c3ccc(F)cc3)C2)C(C)(C)N1O", "values": [{"measurement": "nucleolar normality score", "setting": "1 µM", "result": "inactive: 1"}, {"measurement": "nucleolar normality score", "setting": "10 µM", "result": "active: 0.766"}]}, {"molecule": "CN1CCN(c2ccc3nc(-c4c(N)c5c(F)cccc5[nH]c4=O)[nH]c3c2)CC1", "note": "[Dovitinib (TKI258) Lactate]", "values": [{"measurement": "nucleolar normality score", "setting": "1 µM", "result": "inactive: 0.981"}, {"measurement": "nucleolar normality score", "setting": "10 µM", "result": "inactive: 1.04"}]}, {"molecule": "C=CCNC1=C2C[C@@H](C)C[C@H](OC)[C@H](O)[C@@H](C)/C=C(\\C)[C@H](OC(N)=O)[C@@H](OC)/C=C\\C=C(/C)C(=O)NC(=CC1=O)C2=O", "note": "[Tanespimycin (17-AAG)]", "values": [{"measurement": "nucleolar normality score", "setting": "1 µM", "result": "active: 0.411"}, {"measurement": "nucleolar normality score", "setting": "10 µM", "result": "active: 0.357"}]}, {"molecule": "Cc1ccc(NC(=S)NNc2c([N+](=O)[O-])cc(C(F)(F)F)cc2[N+](=O)[O-])cc1Cl", "values": [{"measurement": "nucleolar normality score", "setting": "1 µM", "result": "inactive: 1.04"}, {"measurement": "nucleolar normality score", "setting": "10 µM", "result": "inactive: 1.01"}]}, {"molecule": "COc1c(O)cc(O)c2c(=O)cc(-c3ccccc3)oc12", "note": "[Wogonin]", "values": [{"measurement": "nucleolar normality score", "setting": "1 µM", "result": "inactive: 1.02"}, {"measurement": "nucleolar normality score", "setting": "10 µM", "result": "inactive: 0.874"}]}, {"molecule": "O=C(O)/C=C/c1ccccc1", "note": "[Cinnamic acid]", "values": [{"measurement": "nucleolar normality score", "setting": "1 µM", "result": "inactive: 1.06"}, {"measurement": "nucleolar normality score", "setting": "10 µM", "result": "inactive: 0.897"}]}, {"molecule": "CC1=NN(c2ccc(C(=O)O)cc2)C(=O)C1=Cc1ccc(-c2cc(C)c(C)cc2[N+](=O)[O-])o1", "values": [{"measurement": "nucleolar normality score", "setting": "1 µM", "result": "active: 0.885"}, {"measurement": "nucleolar normality score", "setting": "10 µM", "result": "inactive: 1"}]}, {"molecule": "COc1ccc(-c2cc3c(C)nc(N)nc3n([C@H]3CC[C@H](OCCO)CC3)c2=O)cn1", "values": [{"measurement": "nucleolar normality score", "setting": "1 µM", "result": "inactive: 0.928"}, {"measurement": "nucleolar normality score", "setting": "10 µM", "result": "active: 0.849"}]}, {"molecule": "Cn1c(=O)c(F)c(Nc2ccc(I)cc2F)c2c(=O)n(C[C@@H](O)CO)cnc21", "values": [{"measurement": "nucleolar normality score", "setting": "1 µM", "result": "inactive: 0.968"}, {"measurement": "nucleolar normality score", "setting": "10 µM", "result": "active: 0.815"}]}, {"molecule": "NCCNc1ccc(NCCN)c2c1C(=O)c1ccncc1C2=O", "note": "[Pixantrone Maleate]", "values": [{"measurement": "nucleolar normality score", "setting": "1 µM", "result": "active: 0.748"}, {"measurement": "nucleolar normality score", "setting": "10 µM", "result": "active: 0.257"}]}, {"molecule": "Nc1cc(F)ccc1NC(=O)c1ccc(CNC(=O)/C=C/c2cccnc2)cc1", "note": "[Tucidinostat (Chidamide)]", "values": [{"measurement": "nucleolar normality score", "setting": "1 µM", "result": "inactive: 0.926"}, {"measurement": "nucleolar normality score", "setting": "10 µM", "result": "inactive: 0.986"}]}, {"molecule": "Cc1c(Cn2c(C)nc3c(C(=O)O)cc(N4CCOCC4)cc32)cccc1C(F)(F)F", "values": [{"measurement": "nucleolar normality score", "setting": "1 µM", "result": "inactive: 0.943"}, {"measurement": "nucleolar normality score", "setting": "10 µM", "result": "inactive: 1"}]}, {"molecule": "NC(=O)CCCSc1nc(N)nc(-c2c(Cl)cc3c4c(cccc24)COC3)n1", "values": [{"measurement": "nucleolar normality score", "setting": "1 µM", "result": "active: 0.808"}, {"measurement": "nucleolar normality score", "setting": "10 µM", "result": "active: 0.425"}]}, {"molecule": "CC(C)c1onc(-c2c(Cl)cccc2Cl)c1COc1ccc(/C=C/c2cccc(C(=O)O)c2)c(Cl)c1", "values": [{"measurement": "nucleolar normality score", "setting": "1 µM", "result": "inactive: 0.974"}, {"measurement": "nucleolar normality score", "setting": "10 µM", "result": "inactive: 0.851"}]}, {"molecule": "CO[C@@H](C)Cn1c(=O)n(C)c2cnc3ccc(-c4cncc(C(C)(C)O)c4)cc3c21", "values": [{"measurement": "nucleolar normality score", "setting": "1 µM", "result": "active: 0.678"}, {"measurement": "nucleolar normality score", "setting": "10 µM", "result": "active: 0.533"}]}, {"molecule": "Nc1nc(Nc2ccc(S(N)(=O)=O)cc2)nn1C(=O)c1c(F)cccc1F", "values": [{"measurement": "nucleolar normality score", "setting": "1 µM", "result": "inactive: 1.08"}, {"measurement": "nucleolar normality score", "setting": "10 µM", "result": "inactive: 1.09"}]}, {"molecule": "Cc1[nH]c(/C=C2\\C(=O)Nc3ccc(S(=O)(=O)Cc4c(Cl)cccc4Cl)cc32)c(C)c1C(=O)N1CCC[C@@H]1CN1CCCC1", "values": [{"measurement": "nucleolar normality score", "setting": "1 µM", "result": "inactive: 1.04"}, {"measurement": "nucleolar normality score", "setting": "10 µM", "result": "inactive: 1.08"}]}, {"molecule": "NC(=O)[C@@H](CCC(F)(F)F)N(Cc1ccc(-c2ncon2)cc1F)S(=O)(=O)c1ccc(Cl)cc1", "values": [{"measurement": "nucleolar normality score", "setting": "1 µM", "result": "inactive: 1.04"}, {"measurement": "nucleolar normality score", "setting": "10 µM", "result": "inactive: 1.04"}]}]}
